Source: the supplement of paper PMC10369915
This is one part of the list. Rule as the data show it: active = 3.2 or more and inactive = the rest. The signal is at background level for most entries.

B1: TMPRSS6_Y290 (peptide)
chain: LITSVYGCSRQ
B2: TMPRSS6_Y290_S288L (peptide)
chain: LITLVYGCSRQ
B3: TMPRSS6_Y290_T287N (peptide)
chain: LINSVYGCSRQ
B4: TNIK_Y40_R43P (peptide)
chain: TYGQVYKGPHV
B5: TNIK_Y40_YF (peptide)
chain: TFGQVYKGRHV
B6: TNK1_Y277_V278I (peptide)
chain: GARGRYIMGGP
B7: TNK2_Y635 (peptide)
chain: PPPPAYDDVAQ
B8: TNNI3K_Y425_S430L (peptide)
chain: GGDGSYVSVPL
B9: TNNI3K_Y788 (peptide)
chain: QSAGQYSSQGL
B10: TNNT2_Y251 (peptide)
chain: LWQSIYNLEAE
B11: TNNT2_Y251_S249T (peptide)
chain: LWQTIYNLEAE
B12: TNRC6B_Y1382 (peptide)
chain: SGGMDYGMVGG
B13: TNS1_Y793_Y796C (peptide)
chain: PPGRSYSPCDY
B14: TNS1_Y796 (peptide)
chain: RSYSPYDYQPC
B15: TNS1_Y796_Y796C (peptide)
chain: RSYSPCDYQPC
B16: TNS1_Y796_Y796C_YF (peptide)
chain: RSFSPCDFQPC
B17: TNS1_Y798 (peptide)
chain: YSPYDYQPCLA
B18: TNS1_Y798_Y796C (peptide)
chain: YSPCDYQPCLA
B19: TNS1_Y798_YF (peptide)
chain: FSPFDYQPCLA

biological target: SHP2 C-SH2 domain E139D; test: enrichment score (SH2-bound / input frequency) (ratio); bacterial display of known human phosphotyrosine sites (pTyr-Var adds point mutants) read by sequencing; higher = stronger binding; tyrosines were phosphorylated by kinases first; details: peptide library: pTyr-Var
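Also: displayed peptides selected on beads carrying the immobilized SH2 domain, with library peptides lacking any tyrosine serving as negative controls.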

Enrichment score, inactive:
B1 0.881
B2 1.36
B3 0.921
B4 0.929
B5 0.932
B6 0.476
B7 0.507
B8 0.573
B9 0.613
B10 2.03
B11 1.67
B12 0.706
B13 0.972
B14 0.647
B15 2.5
B16 1.68
B17 0.864
B18 2.61
B19 0.992

biological target: SHP2 C-SH2 domain wild-type; test: as above; details: peptide library: pTyr-Var

Enrichment score, inactive:
B1 1.01
B2 1.08
B3 0.754
B4 0.851
B5 0.976
B6 0.441
B7 0.47
B8 0.609
B9 0.671
B10 2.5
B11 1.63
B12 0.658
B13 0.81
B14 0.6
B15 2.7
B16 1.59
B17 0.984
B18 2.51
B19 0.889

biological target: SHP2 N-SH2 domain L43F; test: as above; details: peptide library: pTyr-Var

Enrichment score, inactive:
B1 0.771
B2 1.08
B3 0.586
B4 0.73
B5 0.949
B6 0.519
B7 0.54
B8 0.505
B9 0.614
B10 2.51
B11 1.67
B12 0.814
B13 0.608
B14 0.541
B15 2.67
B16 1.73
B17 0.757
B18 2.98
B19 0.805

biological target: SHP2 N-SH2 domain T42A; test: as above; details: peptide library: pTyr-Var

Enrichment score, inactive:
B1 0.711
B2 0.719
B3 0.665
B4 0.745
B5 0.83
B6 0.466
B7 0.598
B8 0.469
B9 0.42
B10 2.4
B11 1.82
B12 0.591
B13 0.783
B14 0.557
B15 2.34
B16 1.77
B17 0.72
B18 2.25
B19 0.873

biological target: SHP2 N-SH2 domain T52S; test: as above; details: peptide library: pTyr-Var

Enrichment score, inactive:
B1 0.842
B2 1.05
B3 1.04
B4 0.776
B5 0.835
B6 0.579
B7 0.53
B8 0.63
B9 0.506
B10 2.5
B11 1.75
B12 0.634
B13 0.785
B14 0.498
B15 2.78
B16 1.84
B17 0.918
B18 2.6
B19 0.817

biological target: SHP2 N-SH2 domain wild-type; test: as above; details: peptide library: pTyr-Var

Enrichment score, inactive:
B1 1.12
B2 1.13
B3 0.829
B4 0.803
B5 1.1
B6 0.604
B7 0.762
B8 0.727
B9 0.634
B10 2.67
B11 1.58
B12 0.688
B13 0.722
B14 0.634
B15 2.53
B16 1.71
B17 1.06
B18 2.07
B19 0.901
